# Results: PubChem BioAssay (NCI)
# The source holds several records for some structures; these can differ, active in one and inactive in another.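 In brief: 96-well plates, 48 h treatment, single concentration, percent growth endpoint.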 A number of entries come with more than one value. They are shown here; other results are not. How the source made its calls: active means growth percent below 10; inactive means the rest. An entry can have further records. The screen tested this drug many times, at its own concentration, as given; one value stands for one run. Counts like (3×) say how often a value occurs here.
# Legend:
# K-562 leukemia = experiment: NCI-60 one-dose screen, 48 h (100 = growth as untreated, 0 = no growth, -100 = all killed); conditions: 25 µM
# MALME-3M melanoma = experiment: as above; conditions: 0.25 µM
smiles,measurement,setting,value
COc1cccc2c1C(=O)c1c(O)c3c(c(O)c1C2=O)C[C@@](O)(C(=O)CO)C[C@@H]3OC1CC(N)C(O)C(C)O1 (stereo not given in full),growth,K-562 leukemia; runs of 1992,"active: -11.9, 1.49, 3.76, -52.2, -31.7, -27.7, -26.3, -7.58, 0.535, -16.4, -41.3, -30.2, 0.124, 0.282, -41.6, -18, -36.4, -28.2 (2×), -10.9, -35.9, -14, 6.02, -13, -67, 0, 6.34, -40.4, -57, -20.7, -57.5, -30.9, 2.18, -22.6, -19.3, -0.94, -5.69, 2.69 (2×), -26.8, -41.7, -32.6, -44.8, -12.6, -25.4, -47.8, -35.3, 5.48, -9.73, -19.2, 2.24, -35.7, -66, -25, -5.5, 0.908, -0.82, -53.7, -15.3, 1.78, 0.443, -6.35, -2.13, -16.1, -28.3, -17.2, -29, 0.607, -38.3, -21.6, -41.4 (2×), -61.7, -3.33, -5.17, -7.64, -9.36, -5.25, -40, -46.1, -17.3, -4.72, 8.67, -8.98, 4.43, -59.9, -21.1, -27.8, -35.5, 3.68 (2×), -4.68, -34, 0.281, -4.02, 3.74, -46.8, -45.1, -9.39, 5.57, -7.92, 3.72, -3.98, -26.5, -13.3, -14.6, 2.46, 5, -20.4, 1.48, -30.5, 0.9% and inactive: 25.4, 11.4, 16.6, 31.2, 17.1, 19.9, 13.8, 41.8, 30.2%"
same,growth,K-562 leukemia; runs of 1993,"active: 1.22, 5.8, 1.94, -37.6, -20, -26.5 (2×), -28.2, 2.87, -11.7, -12.8, -14, -45.1, -17.2, -35.2, 0.889, 1.17, 0.334, -68.6, -15.4, -8.62, -11, 0.26, -9.8, -36.3, -40.3, -46.1, -15.6, -30.4, -9.69, -27.8, -1.75, 2.71, -13.2, -21.9, -30.9, -5, -29.6% and inactive: 15.4, 105, 31.7, 26.3, 50.9, 13.6, 15.3%"
same,growth,K-562 leukemia; runs of 1994,"active: -12.1, -22.2, -42.3, -1.65, 1.9, -0.552, 2.31, -19.1, 5.52, 9.92, 3.25, 3.88, -40.4, -9.07, -48.8, -53.9, 1.11, -18.2, -25.4, 5.05, 1.07, -35.9, 1.22, -39.5, 3.02, 3.42, -53, -49.2% and inactive: 109, 31.3, 15.1, 14%"
same,growth,K-562 leukemia; runs of 1995,"active: -43.6, -16.4, 8.14, -17.7, -39.9, -60, 0.761, 0.61, -11.8, -51.6, 6.05, -43, -30.7, -24.3, -20.7, -45.7, -42.9, -36.2, -3.53, -38.3, -50.8, -1.55, -8.91, -69.5, -36.1, 9.22, -26.7, 2.3, -18.6, -53.3, -8.2, 0.778, -24.8, -69.1, -26.3, -58.6% and inactive: 20.4%"
same,growth,K-562 leukemia; runs of 1996,"active: -46.2, 3.74, -41, 4.2, -49.6, -50, -16.4, 8.27, 6.74, -52.1, 8.96, -76.1, -0.365, -7.14, -100, -51, -55, 6.25, 0.233, 3.72, -49.4, -59.8, -58.9, -27.1, -3.61, 1.22, 4.28, -7.91, -21.5, -33, -35.1, -42.4, -46.5, -45.4, 0.858, -26.3, -83.2, -51.9, -26.5, -1.04, -59.5, -23.8, -70.2, -43.6% and inactive: 17.2, 101, 72.3, 90.3, 13.1, 10.6%"
same,growth,K-562 leukemia; runs of 1997,"active: 6.6, 1.83, -38, -50.3, -50.4, -67.2, -24.7, -24.3, 8.34, -11.5, 6.39, -3.76, 0.0635, 0.24, -13.2, 9.28, 8.84, 3.14, -41.4, 4.38, -37.1, -8.1, -28, -42.7, 1.27, -33.3, -53.9% and inactive: 23.4, 20.8, 11.1, 49.4, 24.5 (2×), 11.3, 18.7, 73.4%"
same,growth,K-562 leukemia; runs of 1998,"active: -44.9, -3.48, 8.66, 6.11, 2.89, -18.8, 8.79, -50.2, -22, 4.08, 0.506, 0.244, -72.1, -24.6, -24.9, -19, -15.9% and inactive: 16.4%, 87.5%, 14.2%"
same,growth,K-562 leukemia; runs of 1999,"active: -15.5, 0.728, 3.97, -17.6, -5.52, 0.502, -51.9, 4.64, 0.175, -87.1, -54.6, 2.42, 3.03, -96.5, 0.793, 4.2, 6.43%"
same,growth,K-562 leukemia; runs of 2000,"active: -88%, 3.16%, -32.1% and inactive: 15.9%"
same,growth,MALME-3M melanoma; runs of 2006,"inactive: 36.8%, 10.2%"
same,growth,MALME-3M melanoma; runs of 2007,"active: 7.79, -17.6, -3.95, 9.09, 2.18, -8.96, -7.95, 4.02, 7.59, 7.06% and inactive: 21.7, 27.5 (2×), 26.3, 28.9, 23.2, 22.8, 18.9 (2×), 18.5, 30.8, 31.4, 86.8, 43.8, 27.3, 15, 37.1, 29.9, 49.6, 28.4, 32.1, 40.4, 69.5, 19.2, 28.5, 27.1, 19.8, 29.5, 17.1, 18.3, 18.1, 12, 25.5%"
same,growth,MALME-3M melanoma; runs of 2008,"inactive: 30.8, 34.5, 18.1, 34.2, 35.1, 30.2, 27.3 (2×), 28.6, 24.2, 34.9, 70.5, 47.7, 22.1 (2×), 12, 12.7, 18.7, 11.3, 108, 28.4, 23.3, 20.6, 27.5, 46.8, 17.1, 29.4, 21.6, 21.7% and active: -5.07, -20.9, 2.88, 9.43, -14.7, -7.85, -11.8, -10.8, -2.09, 6.93, 8.13, -2.01, -0.0777, -0.766, -22.5, 5.52, -11.7, -5.94, -9.37, -15.4, -25.4, 7.47, 9.31, 3.64, 6.36, 1.72, 0.668, -1.24%"
same,growth,MALME-3M melanoma; runs of 2009,"inactive: 25.5 (2×), 22.7, 28.3, 40.1, 26.7, 29.5, 37.9, 44.3, 31.7, 16.4 (2×), 27.1, 27.9, 12.2, 24.5, 18.9, 33.3, 17 (2×), 14.1, 19.1, 18.1, 25.8, 21.4 (2×), 23.6, 21.8, 17.8, 18, 35.1, 36.1, 20.6, 39, 10.5, 32.4, 15, 27.3, 21.3, 16.1, 60.9, 34.7, 19.5, 24.6, 36, 13% and active: 2.33, -5.41, 3.15, 9.2, -11.2, -6.82, -7.09, 6.8, 6.52, -1.28, 7.76, -3.24, 9.69, 1.97, 8.16, 5.6, -12.3, 7.61, -10.3, 0.67, -19.2, 8.09%"
same,growth,MALME-3M melanoma; runs of 2010,"inactive: 10.1, 44.3, 48.2, 10.7, 27.7, 20.8, 15, 49.6, 38.3, 28.5, 11, 32, 38.9, 24.2, 18.7, 23.5, 45.1, 30.9, 19.8, 42.3, 47.4, 23.9, 29.2, 20, 12.8, 30.4, 27.2 (2×), 29.6, 22.3, 39.3, 14.6, 17.6, 28.2, 11.7, 28.8, 17, 23.3, 30.1, 33.1, 22.8% and active: 9.68, -2.08, -1.86, 4.92, -5.26, -5.05, 9.97, 5.83, -1.4, 4.77%"
same,growth,MALME-3M melanoma; runs of 2011,"inactive: 35.8, 34.6, 33.9, 33.7, 35, 46.6, 42.8, 36.3, 46.3, 26.5, 34.7, 30.5 (2×), 27.9, 43.9, 37 (2×), 41.5, 39.8, 37.6 (2×), 46.2, 38.1, 45.7, 27.4, 44.6, 44.4, 41.8, 19.8, 12.9, 28.3, 16.8, 22.8, 22.6, 26.9, 21.5, 24.1, 26.7, 32.5, 37.1, 28.2, 32.7, 37.8, 27.7, 31.4, 20.3, 14.8, 24.6, 38.3, 30.3, 17.4, 32, 34.5, 31.5, 32.2, 66.2, 47.2%"
